# Measurements from PubChem BioAssay AID1963430 (Molecular Pharmacology Branch, DTP, NCI, 2024).
# The source holds more than one record for some entries. The list is limited to them. There may be further records. Results that share an entry are repeated measurements across runs, samples, wells, individuals or studies. Brackets with × say how often a value occurs here. A date in brackets names the month of the test.
# Test system: 521955-158-R2-J5-PDC complex spheroid growth, % test/control
# Assay: Anticancer human tumor 521955-158-R2-J5-PDC patient-derived pancreatic carcinoma cell line growth inhibition [Asc]
# Details: for IC50: compound alone; for viability, T/C: stronger effect = lower value
# Procedure: Multicellular complex tumor spheroid response to apoptosis pathway targeting inhibitors Alrizomadlin, Pelcitoclax, and Dasminapant in combination with a variety of drugs and investigational agents in selected tumor cell lines
# The MDM2 inhibitor alrizomadlin, the Bcl-2/Bcl-xL inhibitor pelcitoclax, and the IAPs inhibitor dasminapant were evaluated both individually and in combination with standard of care and investigational anticancer small molecules within a complex spheroid model of solid tumors. . Complex spheroids include a stromal component modeled by human endothelial cells (HUVEC) and fibroblasts modeled by human mesenchymal stem cells (MSCs). The concentration ranges selected for each drug and investigational agent were based upon clinically achievable concentrations if the clinical Cmax of the agent was known.
# Compounds. The drugs and investigational agents: alrizomadlin (APG-115; NSC831270), pelcitoclax (APG-1252; NSC835773), dasminapant (APG-1387;NSC834197), TAK-243 (NSC785004), copanlisib (NSC809693), olaparib (NSC753686), talazoparib (NSC767125), cobimetinib (NSC 768068), eltanexor (KPT-8602, NSC 794443), abemaciclib (NSC 768073), sotorasib (NSC818433), adagrasib (NSC 831453), MRTX-1133 (NSC 836407), Iadademestat (ORY1001, NSC 806812), and RMC-4630 (NSC839698), were obtained from the NCI Developmental Therapeutics Program Chemical Repository. The FDA-approved anticancer drug set is available from the Developmental Therapeutics Program at https://dtp.cancer.gov/organization/dscb/obtaining/available plates.htm. […] The stock solutions were prepared in dimethyl sulfoxide (DMSO, Sigma-Aldrich, St. Louis, MO, cat. D2650) at 800-fold the tested concentration and stored at -70 degrees C prior to their use. All drugs and investigational agents were tested over a range starting from a high concentration at or near the clinical Cmax and decreasing in half-log increments. If the clinical Cmax for an agent had not been determined, the highest concentration tested was 10 microM.
# The patient-derived cancer (PDC) cell lines include five colon adenocarcinomas: 186277-243-T-J2-PDC, 616215-338-R-J1-PDC, 439559-082-T-J2-PDC, 463943-066-T-J2-PDC, and 519858-162-T-J1-PDC; three pancreatic carcinomas: 323965-272-R-J2-PDC, 521955-158-R6-J3-PDC, and 521955-158-R2-J5-PDC; two uterine sarcomas: 327498-152-R-J2-PDC and 993429-296-R-J1-PDC; two rhabdomyosarcomas: 755483-174-R-J1-PDC and 772245-204-R-J1-PDC; two soft tissue sarcomas: 126254-015-R-J1-PDC and 494315-158-R-J1-PDC; two malignant fibrous histiocytomas: 317291-083-R-J1-PDC and 596521-263-R-J1-PDC; two breast carcinomas: 171881-019-R-J1-PDC and 885512-296-R-J2-PDC; and one ovarian carcinoma: 6556581-035-R-J-PDC were obtained from the NCI PDMR, (https://pdmr.cancer.gov). The established cell lines HSSY-2 synovial sarcoma (RRID:CVCL 8719), SYO-1 synovial sarcoma (RRID:CVCL_7146), MPNST malignant peripheral neural sheath tumor were obtained from the Sloan Kettering Institute. The following established cell lines were purchased from the American Type Culture Collection (ATCC, Manassas, VA), Sor the received from the NCI repository:, PANC-1 pancreatic carcinoma (CRL-1469, RRID:CVCL_0480), OVCAR-5 ovarian carcinoma (RRID:CVCL_1628), OVCAR-8 ovarian carcinoma (RRID:CVCL_1629), , MCF-7 breast carcinoma (CRL-12584, RRID:CVCL_0031), MDA-MB-231 breast carcinoma (CRL-12532, RRID:CVCL_0062), NCI-H1876 small cell lung carcinoma (CRL-5902, RRID:CVCL_1503), NCI-H510A small cell lung carcinoma (HTB-184, RRID:CVCL_1565), NCI-H1417 (CRL-5869, RRID:CVCL_1469), and NCI-H196 small cell lung carcinoma (CRL-5823, RRID:CVCL_1509). Dr. Peter Houghton (Greehey Children's Cancer Research Institute, University of Texas Health Science Center, San Antonio, TX) provided Rh-18 rhabdomyosarcoma (RRID:CVCL_1659). Pooled donor human umbilical vein endothelial cells (HUVEC, Lonza, cat. CC-2519) and human mesenchymal stem cells (hMSC, Lonza, cat. PT-2501) were purchased from Lonza (Walkersville, MD).
# Cell Culture. […]
# 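Note: spheroids exposed to agents for 7 days before readout.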
# 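Throughout, for viability, T/C: 100% = DMSO vehicle control viability.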
smiles,measurement,setting,value
Cc1nc(N2CCC3(CC2)COC(C)C3N)c(CO)nc1Sc1ccnc(N)c1Cl (stereo not drawn),IC50,,"> 3 µM, 76.9 nM [2022-09] and > 3 µM [2022-10]"
CCN1C(C(=O)NC23CCC(C(=O)O)(CC2)CC3)C(c2cccc(Cl)c2F)C2(C(=O)Nc3cc(Cl)ccc32)C12CCCCC2 (stereo not drawn),"viability, T/C",compound alone 0.03 µM,"77.4, 91, 100, 84, 93.2, 102, 93.1, 68.7, 74, 107, 69.6, 97.3, 91.2, 73.3% [2022-09] and 96.6% [2022-10]"
same,"viability, T/C",compound alone 0.0949 µM,"108, 90, 64.7, 99.4, 97.8, 83.8, 91.4, 65.2, 112, 111, 102, 90.8, 84.8, 83.3% [2022-09] and 80.2% [2022-10]"
same,"viability, T/C",compound alone 0.3 µM,"105, 94.6, 118, 120, 106, 104, 107, 87.7, 111, 114, 124, 79.1, 96, 48.2% [2022-09] and 95.2% [2022-10]"
same,"viability, T/C",compound alone 0.949 µM,"106, 122, 127, 128, 134, 98, 119, 99.6, 97.9, 135 (2×), 117, 118, 101% [2022-09] and 107% [2022-10]"
same,"viability, T/C",compound alone 3 µM,"128 (2×), 152, 123, 120, 110 (2×), 130, 85.7, 149, 114, 108, 85.8, 105% [2022-09] and 109% [2022-10]"
NC(=O)C(=Cn1cnc(-c2cc(C(F)(F)F)cc(C(F)(F)F)c2)n1)c1cncnc1,IC50,,"5.37 nM, 2.36 nM [2022-09] and 30 nM [2022-10]"
Cc1c(S(C)(=O)=O)c(-c2cc(F)cc(N3CCN(c4ccc(NS(=O)(=O)c5ccc(NC(CCN6CCC(C(=O)OCCCP(=O)(O)O)CC6)CSc6ccccc6)c(S(=O)(=O)C(F)(F)F)c5)cc4)CC3)c2)c(-c2ccc(Cl)cc2)n1C(C)C (stereo not drawn),"viability, T/C",compound alone 0.1 µM,"77.6 (2×), 114, 113, 54.8, 68.4, 79.2, 82.5, 78.1, 61.5, 82.9, 73.5, 77.1, 69.4%"
same,"viability, T/C",compound alone 0.316 µM,"63.9, 103, 64.8, 72.6, 75.1, 85.2, 99.6, 85.4, 89.1, 65.2, 89.9, 62.3, 66.2, 85.3%"
same,"viability, T/C",compound alone 1 µM,"59.2, 76.6, 106, 74, 54, 63.7, 61.7, 74.2, 86.2, 102, 99.3, 87.1, 113, 78%"
same,"viability, T/C",compound alone 3.16 µM,"99, 126, 96.7, 94.7, 87.7, 85.2, 77.1, 98, 78.6, 74.1, 102, 84.9, 66.9, 92.1%"
same,"viability, T/C",compound alone 10 µM,"167, 206, 213, 165, 168, 133, 68.3, 104, 176, 153, 158, 157, 166, 123%"
same,IC50,run of 09/27/2022,> 10 µM and < 100 nM
CNC(C)C(=O)NC1CN(S(=O)(=O)c2cccc(S(=O)(=O)N3CCC4CCC(C(=O)NC(c5ccccc5)c5ccccc5)N4C(=O)C(NC(=O)C(C)NC)C3)c2)CCC2CCC(C(=O)NC(c3ccccc3)c3ccccc3)N2C1=O (stereo not drawn),"viability, T/C",compound alone 0.01 µM,"102%, 66.1% [2022-09] and 99.4, 76.1, 86.3, 95, 76.8, 110, 107 (2×), 106, 95.2, 92.7, 98.7, 90.3% [2022-10]"
same,"viability, T/C",compound alone 0.0316 µM,"66.7%, 84.8% [2022-09] and 92.9, 92.5, 94.5, 100, 95, 106, 92.3, 111, 117, 92.1, 89.7, 88.4, 98.5% [2022-10]"
same,"viability, T/C",compound alone 0.1 µM,"76.6%, 94.8% [2022-09] and 92, 99.9, 77.3, 105, 101 (2×), 94.4, 100, 119, 106, 114, 87.8, 97.4% [2022-10]"
same,"viability, T/C",compound alone 0.316 µM,"92.1%, 73.5% [2022-09] and 90.8, 99.9, 83.6, 88.2, 94.4, 94.7, 109, 108, 89.2, 98.8, 89.3, 102, 95.2% [2022-10]"
same,"viability, T/C",compound alone 1 µM,"96.8%, 72.7% [2022-09] and 85.7, 94.4, 93.4 (2×), 99.2, 97.9, 94.5, 99.8, 117, 86, 112, 102% [2022-10]"
